Results from PMC4336329 (PLoS ONE, 2015).
Hit rate of the full screen: of about 310,000 compounds, about 14,000 (4.5%) showed an effect of 50% or more. Effects have a minus sign here. Some of the results follow.

target: human ether-à-go-go-related gene (hERG) potassium channel (human, UniProt Q12809); test: primary screen, population patch clamp on CHO cells stably expressing hERG
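Further: peak tail current of the secondary pulse compared with the same well before compound.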

human ether-à-go-go-related gene (hERG) potassium channel, sequence (Q12809 whole entry, looked up): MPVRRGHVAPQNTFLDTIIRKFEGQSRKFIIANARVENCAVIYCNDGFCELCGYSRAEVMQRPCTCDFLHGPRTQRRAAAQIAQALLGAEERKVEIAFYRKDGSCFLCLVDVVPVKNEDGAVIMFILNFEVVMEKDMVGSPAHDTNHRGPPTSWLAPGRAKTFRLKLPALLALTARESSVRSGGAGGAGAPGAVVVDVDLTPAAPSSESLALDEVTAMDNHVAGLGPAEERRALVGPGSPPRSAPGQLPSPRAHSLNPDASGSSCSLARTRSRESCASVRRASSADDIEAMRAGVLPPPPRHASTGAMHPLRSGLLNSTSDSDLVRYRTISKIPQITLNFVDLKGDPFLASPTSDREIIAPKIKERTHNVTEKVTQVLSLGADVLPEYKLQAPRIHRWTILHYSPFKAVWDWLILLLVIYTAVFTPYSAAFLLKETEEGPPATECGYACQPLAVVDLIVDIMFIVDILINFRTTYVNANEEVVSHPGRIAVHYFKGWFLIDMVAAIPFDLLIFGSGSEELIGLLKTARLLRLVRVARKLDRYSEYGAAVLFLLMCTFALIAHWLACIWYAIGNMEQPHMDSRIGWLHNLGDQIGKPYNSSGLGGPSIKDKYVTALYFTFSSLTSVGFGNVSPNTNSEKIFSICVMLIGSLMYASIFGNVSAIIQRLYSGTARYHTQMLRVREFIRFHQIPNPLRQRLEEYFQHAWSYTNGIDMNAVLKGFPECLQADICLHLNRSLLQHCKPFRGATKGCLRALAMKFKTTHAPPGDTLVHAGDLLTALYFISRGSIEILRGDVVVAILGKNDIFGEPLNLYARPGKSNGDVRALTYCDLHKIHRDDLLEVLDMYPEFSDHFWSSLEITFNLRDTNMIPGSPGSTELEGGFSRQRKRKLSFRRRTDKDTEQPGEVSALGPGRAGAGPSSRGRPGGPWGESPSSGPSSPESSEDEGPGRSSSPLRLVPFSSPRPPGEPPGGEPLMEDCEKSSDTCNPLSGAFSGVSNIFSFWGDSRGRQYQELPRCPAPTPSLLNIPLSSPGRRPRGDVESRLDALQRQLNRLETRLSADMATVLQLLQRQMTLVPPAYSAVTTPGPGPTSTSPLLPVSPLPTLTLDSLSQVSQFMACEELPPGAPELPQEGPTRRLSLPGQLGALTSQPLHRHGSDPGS

SMILES | hERG current change (%, negative = inhibition) at 10uM
O=[N+]([O-])c1cccc2ccc(/C=C/c3ccc(F)cc3)nc12 | 3.12%
CCc1ccc(C2C(C(C)=O)=C(C(=O)OC)Nc3nnnn32)cc1 (centres unmarked) | 8%
CCOC(=O)CC1C(=O)NCCN1Cc1ccc(OC)c(OC)c1 (centres unmarked) | 9.82%
CN(CCCC(=O)Nc1ccccc1)S(=O)(=O)c1ccc(Cl)cc1 | -47.9%
Cc1cc(C)c(S(=O)(=O)Nc2ccccc2C(=O)N2CCCC2)c(C)c1 | 7.52%
COCC(=O)NC1CCN(CC(=O)Nc2ccc(OC)cc2[N+](=O)[O-])CC1 | -2.46%
COc1ccc(C(=O)NNC(=O)CSc2nnc(COc3ccccc3OC)n2C)cc1 | 6.07%
CN(C)S(=O)(=O)c1cc(S(=O)(=O)N(C)C)c(Cl)cc1N | -8.31%
CCN(CC)CCNC(=O)Cn1nc(Cc2ccccc2)c2ccccc2c1=O | -49.4%
Cn1nnc(NC(=O)c2ccco2)n1 | -33.7%
CSc1nc(N)c(N=Nc2ccc([As](=O)(O)O)cc2)c(=O)[nH]1 | 9.11%
Cc1cc2n(n1)C(c1c[nH]c3ccccc13)Nc1ccccc1-2 (centres unmarked) | 7.43%
O=C(CN1CCN(S(=O)(=O)c2ccc(F)cc2)CC1)Nc1ccc(Cl)c(C(F)(F)F)c1 | 9.48%
COCCNc1nc2c(c(=O)n(C)c(=O)n2C)n1Cc1cccc(C(F)(F)F)c1 | -6.35%
COc1cc([N+](=O)[O-])cc(CN2CCCCC2)c1O | -1.2%
O=C(CN(C(=O)CSc1nnc(COc2ccccc2)o1)c1ccc(F)cc1)NC1CCCC1 | 4.59%
CCOC(=O)N1CCN(S(=O)(=O)c2ccc(C(=O)Nc3ccc(F)cc3F)cc2)CC1 | 5.94%
CC(=O)NCCC(=O)Nc1cc(S(=O)(=O)N2CCCCC2)ccc1N1CCCCC1 | -5.37%
CC1CC(C)CN(c2oc(-c3ccccc3Cl)nc2C#N)C1 (centres unmarked) | 8.71%

SMILES | hERG current change (%, negative = inhibition) at 10uM
O=C(COc1ccccc1N1C(=O)c2ccccc2C1=O)c1ccc(Cl)cc1 | -5.55%
O=C1/C(=C/c2ccco2)N=C(N2CCCCC2)N1c1ccccc1 | 0.89%
O=C(NCCc1c[nH]c2ccccc12)c1cccnc1 | 19.7%
Cc1ccc(OCC2Cn3c(nc4c3c(=O)[nH]c(=O)n4C)O2)cc1 (centres unmarked) | -0.968%
CC(C)(C)C(=O)N1CCN(c2ccc(NC(=O)c3ccc4c(c3)OCCO4)cc2)CC1 | -8.69%
O=C(Nc1ccn(Cc2ccccc2F)n1)c1ccc(COc2ccccc2Cl)cc1 | -13.6%
COc1cc(/C(C)=N/NC(=S)NC(C)C)cc(OC)c1OC | 6.16%
Cc1ccc(S(=O)(=O)N2CCN(C(=O)CNC(=O)c3sc4ccccc4c3Cl)CC2)cc1 | -1.23%
CCCCOc1ccc(-c2nnn(CC(=O)NCc3ccco3)n2)cc1 | 10.3%
CCNC(=O)CN(c1ccc(C)cc1)S(=O)(=O)c1ccc(SC)cc1 | -19%
C=CCN(c1ccccc1OC)S(=O)(=O)c1cccc(C(=O)Nc2nnc(C3CC3)s2)c1 | 6.56%
CN(C)C1(CNC(=O)c2ccc(NS(=O)(=O)c3ccc(Cl)c(Cl)c3)cc2)CCCCC1 | -74.1%
N=C1c2ccccc2CN1c1cccc([N+](=O)[O-])c1 | -27.7%
COc1ccc(NC(=O)COc2ccc(CNCCCN3CCOCC3)cc2OC)cc1.Cl | 0.185%
Fc1cccc(C2CCCCN2Cc2nc(C3CC3)no2)c1 (centres unmarked) | 13.3%
COCc1cc(=O)[nH]c2cc(NC(=O)C3CC3)c(C)cc12 | 18.7%
Nc1cncc(C(=O)O)c1 [26671297] | 4.06%
Cc1nc(C(=O)Nc2cc(F)cc(Cl)c2)sc1C1(C)CC(c2ccccc2)=NO1 (centres unmarked) | 1.4%
O=C(CSc1nnc(Nc2ccccc2F)s1)NC(=O)CN1CCCC1=O | 2.75%

SMILES | hERG current change (%, negative = inhibition) at 10uM
Cc1nnc(SCC(=O)Nc2sccc2C(N)=O)s1 | -4.23%
CC(C)C(=O)Nc1ccc(C(=O)NNC(=O)NC2CCCCC2)cc1 | 19.2%
CC(=O)Oc1ccc(Cl)cc1/C=C/c1cc(OC(C)=O)c2ccccc2n1 | 18.4%
Cc1ccccc1NS(=O)(=O)CCCCC(Cl)(Cl)Cl | 17.5%
CCC(C)(C)n1nnnc1C(c1ccc(OC)cc1)N1CCN(C(=O)c2ccco2)CC1 (centres unmarked) | -41.6%
Cc1cc(C)n(-c2ccc(C(=O)OCc3ccccc3)cc2)n1 | 21.2%
CSc1nc(N)nc(N(C)C)n1 | 11%
COc1ccc(NC(=O)c2cc(S(=O)(=O)N(C)C)ccc2N2CCCC2)cc1Cl | 12.7%
CCCCSc1nc(O)c(C2OC(=O)c3c2ccc(OC)c3OC)c(=O)n1C (centres unmarked) | -4.31%
COc1ccc(NC(=O)Cn2ccc3c(OC)cccc3c2=O)cc1 | 9.88%
CCOC(=O)c1c(C)[nH]c(C(=O)NCc2ccco2)c1C | 2.76%
CC1(C)Cc2nc(-c3ccccc3)nc(SCC(O)CO)c2CO1 (centres unmarked) | -15.8%
OCC1(CCc2ccccc2)CCN(Cc2cc(F)ccc2-n2cccn2)CC1 | -78.1%
C=CCOc1ccc(/C=N/NC(=O)CN2CCCCC2)cc1OC | -61%
COc1ccc(CN(C(=O)/C=C/c2ccco2)C2CCS(=O)(=O)C2)cc1 (centres unmarked) | 6.94%
CC(C(=O)NC(N)=O)N1C(=O)NC(c2ccccc2)(c2ccccc2)C1=O (centres unmarked) | -14.9%
CCOc1ccccc1Nc1nnc(SCC(=O)NC(Cc2c[nH]c3ccccc23)C(=O)O)s1 (centres unmarked) | 23.3%
OCC1(CCCc2ccccc2)CCN(Cc2cnc(N3CCOCC3)s2)CC1 | -58.3%
